# Source: PubChem BioAssay AID686979 (National Center for Advancing Translational Sciences (NCATS), 2013)
# “And” between values parts separate entries of the source, which are not always exact repeats. Equal values may be shown once. Out of some 420,000 compounds screened, about 50,000 (12%) were called active. Inconclusive results, whose numbers are uncertain, are shown with a selection of clear calls. The call rests on the fitted dose curve; in most records, active means well fitted inhibition curve with a large enough effect; inconclusive means small, poorly fitted or top-dose-only effect; inactive means flat fitted curve, though single readings scatter. Potencies of inconclusive entries are left out as doubtful fits.
# Assay: qHTS for Inhibitors of human tyrosyl-DNA phosphodiesterase 1 (TDP1): qHTS in cells in presence of CPT; further: nearly all actives have a fitted effect of over 55% in size
# Conditions: chicken DT40 Tdp1-/-;hTDP1 cells + 20 nM CPT, ATP luminescence, 48 h; activity change, negative = growth inhibition: at 46.2 µM (top of the series)
# Summary of the method: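 Chicken DT40 Tdp1-/- cells stably complemented with human TDP1 were seeded at 400 cells/well in medium containing 20 nM camptothecin, exposed to pin-transferred compounds, and grown at 37 °C for at least 48 hr. Viability was read as ATP luminescence.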
# On the % scale 0 is the no-effect control and ±100 the full control effect; potency means the concentration at half of the fitted maximal effect; tags describe the fitted curve by direction and shape.
Structure (SMILES),Potency,"activity change, negative = growth inhibition"
COc1ccc(CCNC(=O)c2cc3c(=O)n4ccccc4nc3n(Cc3ccco3)c2=N)cc1OC,active: 20.6 µM,
CCOC(=O)C1CCN(C(c2ccc(C)cc2)c2sc3nc(-c4ccco4)nn3c2O)CC1 (stereo not drawn),inactive,
CCC(Sc1ccc2nnc(-c3ccc(F)cc3)n2n1)C(=O)OC (stereo not drawn),"inconclusive [inhibitor, partial curve, poor fit]",
O=C(N/N=C/c1ccc(-c2ccccc2[N+](=O)[O-])o1)[C@H]1C[C@@H]1c1ccccc1,active: 16.4 µM,
CC1(C)C(CSc2nc3ccccc3[nH]2)C1(Cl)Cl (stereo not drawn),active: 23.1 µM,
CC(C)c1ccc(CNC(=O)c2ccc(N3CCCC3)c(NC(=O)NCc3ccc(F)cc3)c2)cc1,"inconclusive [inhibitor, single point]",
Nc1nc(CN2CCCCCC2)nc(Nc2ccccc2)n1,inactive,
C=CCN(c1ccc(C(=O)Nc2cccc(C)c2)cc1)S(C)(=O)=O,inactive,
CC(C)C(=O)Nc1nnc(NC(=S)Nc2ccccc2)s1,"inconclusive [inhibitor, single point]",
Cc1cc(C)n2nc(SCC(=O)N3CCCCC3C)nc2n1 (stereo not drawn),inactive,
O=C(NC1CCCC1)C(c1cc2c(cc1[N+](=O)[O-])OCO2)N1CCCC1 (stereo not drawn),"inconclusive [inhibitor, single point]",
COc1cccc(CC(=O)OC(C)C(=O)NCc2ccc3c(c2)OCO3)c1 (stereo not drawn),inactive,
CCCCNC(=S)NNc1c(Cl)cc(Cl)cc1Cl,"inconclusive [inhibitor, single point]",
CCN1C(=O)c2ccccc2S(=O)(=O)c2ccc(C(=O)N3CCOCC3)cc21,inactive,
CC1=C(C(=O)Nc2cccc(F)c2)C2(CCCCC2)OC1=O,"inconclusive [inhibitor, single point]",
O=C(CCc1nc2ccccc2c(=O)[nH]1)N1CCN(S(=O)(=O)c2ccc(F)cc2)CC1,"inconclusive [inhibitor, single point]",
COc1ccc(-c2cnc3n2CCCCC3)cc1,"inconclusive [inhibitor, single point]",
O=C(NCCc1ccccc1)C1CCCN(c2ncnc3c2nc2n3CCCCC2)C1 (stereo not drawn),"inconclusive [inhibitor, partial curve, poor fit]",
COc1ccc(C)cc1S(=O)(=O)Nc1cccc(-c2cn3cccnc3n2)c1,inactive,
CCN(CC)CCNC(=S)Nc1ccc2nc(N3CCOCC3)cc(C)c2c1,"inconclusive [inhibitor, single point]",
CN(C)C(CNC(=O)Cc1cccc(C(F)(F)F)c1)c1ccccc1 (stereo not drawn),inactive,
C=C1CCC2C(C)(CO)C(O)CCC2(C)C1C/C=C1\C(=O)OCC1O (stereo not drawn),active: 5.96 µM and active: 3.98 µM,
Cc1cccc(Nc2cc(C)nc3nc(-c4ccccc4)nn23)c1,inactive,
Clc1ccccc1-c1nnc(SCc2nc(-c3ccccc3)no2)n1-c1ccccc1,active: 18.4 µM,
O=C(NCCc1ccc(Cl)cc1)c1ccc(CSCc2ccc(Cl)cc2)o1,"inconclusive [inhibitor, single point]",

Structure (SMILES),Potency,"activity change, negative = growth inhibition"
Nc1ccc(/C=C/c2cccc3cccnc23)cc1,"inconclusive [inhibitor, single point]",
CCc1cccc2c(C(=O)CN3C(=O)NC4(CCc5ccccc54)C3=O)c[nH]c12 (stereo not drawn),active: 4.61 µM,
O=C1CCN(Cc2ccccc2)N1,inactive,
CCOC(=O)c1ccc(NC(=O)c2nc[nH]c2C(=O)N[C@@H](CCCCNC(=O)OC(C)(C)C)C(=O)OC(C)(C)C)cc1,"inconclusive [inhibitor, single point]",
O=C1C(=Cc2ccc(Cl)cc2)CCc2ccccc21,active: 20.6 µM,
COc1ccc(Cn2c(CCC(=O)Nc3ccc(OC)c(Cl)c3)nc3cccnc32)cc1,inactive,
[O-][n+]1c2ccccc2c2n1CCN1CCOC21c1ccc(Cl)cc1 (stereo not drawn),active: 2.06 µM,
COc1ccc(N2CCN(C(=O)Nc3ccccc3Cl)CC2)cc1,"inconclusive [inhibitor, partial curve]",
CCc1ccccc1NC(=O)Cn1c(=O)n(CCc2ccccc2)c(=O)c2ccccc21,"inconclusive [inhibitor, single point]",
C=CCN(c1ccccc1)S(=O)(=O)c1cc2c(cc1C)NC(=O)CO2,,inconclusive: -31% [inhibitor]
CC[n+]1c(C=C2C=C(C)OC(C)=C2)sc2ccccc21,active: 0.0052 µM,
Cc1ccc2nc3c(cc(C(=O)NCc4ccccc4)c(=N)n3CCCn3ccnc3)c(=O)n2c1,"inconclusive [inhibitor, single point]",
COC(=O)C[C@H]1C[C@H]2c3cc(NS(=O)(=O)c4ccc(OC)cc4)ccc3O[C@H]2[C@H](CO)O1,"inconclusive [inhibitor, single point]",
N#Cc1ccc(CSc2nnc(COc3ccccc3)n2-c2ccccc2)cc1,"inconclusive [inhibitor, single point]",
CC(=O)c1cccc(NC(=O)CN(C)S(=O)(=O)c2ccc3c(c2)CC(C)N3C(C)=O)c1 (stereo not drawn),"inconclusive [inhibitor, partial curve]",
O=C(Nc1ccc2nc(SCC(=O)N3CCOCC3)sc2c1)c1cccc(F)c1,active: 23.1 µM,
O=C(Cn1nc(Cc2cccnc2)c2ccccc2c1=O)NCC1COc2ccccc2O1 (stereo not drawn),"inconclusive [inhibitor, single point]",
CN(C)C(=S)Nc1nc2ccccc2s1,active: 3.66 µM,
CCN(C(=O)COc1ccc(C(C)=O)cc1)c1cccc2ccccc12,active: 14.6 µM,
CCC(C)(C)NC(=O)C(c1ccc(C)o1)N(Cc1cccs1)C(=O)Cn1nnc2ccccc21 (stereo not drawn),"inconclusive [inhibitor, single point]",
COc1ccc(OC)c(CN2C(=O)c3ccccc3C2c2nnnn2Cc2ccccc2)c1 (stereo not drawn),"inconclusive [inhibitor, single point]",
CC(C)Oc1ccc(CN2CCC2(C)C(=O)Nc2ccc3c(c2)OCO3)cc1 (stereo not drawn),active: 16.4 µM,
COc1ccc(NS(=O)(=O)c2c(C)nc3scc(C)n3c2=O)cc1,inactive,
CCOC(=O)N1CCN(S(=O)(=O)N2CCCC(C(=O)NCc3ccc(OC)cc3OC)C2)CC1 (stereo not drawn),"inconclusive [inhibitor, single point]",
CC1(C(=O)N(CC(=O)NC2CCCC2)Cc2ccccc2)CC(=O)N=C2C=CC=CN21 (stereo not drawn),"inconclusive [inhibitor, full curve]",

Structure (SMILES),Potency,"activity change, negative = growth inhibition"
CC(C)(C)C1C/C(=C/c2ccco2)C(=O)/C(=C/c2ccco2)C1 (stereo not drawn),active: 23.1 µM,
COc1cccc(NC(=O)CSC2=Nc3ccccc3C3=NC(CC(=O)NCc4ccccc4OC)C(=O)N23)c1 (stereo not drawn),"inconclusive [inhibitor, single point]",
COc1ccc(C(C)(NC(C)=O)c2nc(-c3cccc4cccnc34)cs2)cc1 (stereo not drawn),active: 20.6 µM,
CCOc1ccc2nc(NC(=O)C3CCN(S(=O)(=O)c4cnc[nH]4)CC3)sc2c1,inactive,
O=C(CSc1nc2ccccc2c(=O)[nH]1)Nc1ccc(C(=O)O)cc1,inactive,
COc1ccc(C2Nc3ccccc3C(=O)N2Cc2ccco2)cc1COc1ccc([N+](=O)[O-])cc1 (stereo not drawn),"inconclusive [inhibitor, single point]",
C=CCNc1nc2c(c(=O)n(C)c(=O)n2C)n1CCCCCC,active: 3.26 µM,
O=C(NCc1cccnc1)c1c[nH]c2cc3c(cc2c1=O)OCCO3,active: 10.3 µM,
Cc1ccc(SC[C@H](C)CN2CC[C@H](O)CCC2=O)cc1,inactive,
COc1cc(Cl)ccc1OCc1cc(C(=O)N2C[C@H]3CC[C@H]2C3)no1,"inconclusive [inhibitor, single point]",
O=C(CSc1ncn(-c2ccccc2)n1)c1cccs1,,inconclusive: -31.5% [inhibitor]
Cc1cc(C)c2c(=O)n(CC(=O)Nc3cccc(Cl)c3C)sc2n1,active: 5.17 µM,
Cn1c(CNc2cccc(Cl)c2)nnc1SCC#N,inactive,
Cc1cccc(C)c1-n1nnnc1C1(C)CCC(=O)N1Cc1ccco1 (stereo not drawn),inactive,
CCOc1ccc(-c2cc(C(=O)N/N=C(\C)c3cccnc3)c3ccccc3n2)cc1,"inconclusive [inhibitor, partial curve]",
O=C(CNc1ccccc1N1CCCC1=O)Nc1cc(Cl)ccc1-n1cncn1,"inconclusive [inhibitor, single point]",
CCN1C(=O)[C@@H]2Cc3c([nH]c4ccccc34)C(c3ccc(OC)cc3)N2C1=S (stereo partly drawn),"inconclusive [inhibitor, single point]",
Cc1cc(C)c2sc(N(CCCN(C)C)C(=O)c3ccc(S(=O)(=O)N4CCCc5ccccc54)cc3)nc2c1,active: 10.3 µM,
CCOc1ccc(NC(=O)c2c(NCc3cccs3)sc3c2CCCCC3)cc1,"inconclusive [inhibitor, single point]",
COc1cc2c(cc1OC)-c1c(oc3cc(O)cc(O)c3c1=O)CO2,"inconclusive [inhibitor, single point]",
COC(=O)c1scc(-c2ccccc2)c1S(=O)(=O)Nc1ccc(C)c(Cl)c1,"inconclusive [inhibitor, single point]",
O=C(CNC(=O)c1cncc(Br)c1)Nc1ccc(F)c(F)c1F,inactive,
O=C(Cc1ccc(Cl)cc1)N/N=C/c1ccc(O)c(O)c1,"inconclusive [inhibitor, single point]",
